Experimental data as given in PubChem BioAssay AID1345082 (National Center for Advancing Translational Sciences (NCATS), 2018).
Among all 94,000 compounds or so, about 4,000 (4.3%) were called active. Inconclusive results, whose numbers are uncertain, are shown with a selection of clear calls. The call rests on the fitted dose curve; in most records, active means well fitted inhibition curve with a large enough effect; inconclusive means small, poorly fitted or top-dose-only effect; inactive means no such curve, though single readings can be large or run the other way. Potencies of inconclusive entries are doubtful fits and often do not repeat.

Experiment: Cytotoxic Profiling in NIH 3T3 Cell Line of Diverse Libraries Using Quantitative High-Throughput Screening; further: nearly all actives have a fitted effect of over 55% in size
Details: NIH 3T3 viability, CellTiter-Glo ATP luminescence, 48-72 h; series mostly up to 96.7 µM
Method in brief: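 Cytotoxicity is measured as loss of cellular ATP: NIH 3T3 cells (400/well) are exposed to compound for 48 or 72 hr at 37 °C, then CellTiter-Glo luminescence is imaged after 10 min at room temperature.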
Potency means the concentration at half of the fitted maximal effect; tags describe the fitted curve by direction and shape.

Question: For `O=c1cc(-c2ccccn2)oc2c(-c3ccc(CO)cc3)nccc12`, which Potency is on record?
Answer: inconclusive: 10 µM [inhibitor, full curve, poor fit]

Question: With `Cc1c(CN(C)C(=O)CC2C(=O)NCCN2CC(C)(C)C)[nH]c2ccccc12` (configuration not stated) as the compound, how does the Potency read?
Answer: inconclusive: 39.8 µM [inhibitor, partial curve, poor fit]

Question: Which Potency does the source give for `CCOC(=O)C1=CN(Cc2ccccc2)S(=O)(=O)N=C1C` here?
Answer: inconclusive: 31.6 µM [inhibitor, partial curve, poor fit]

Question: With `COc1ccc(C(=O)N2CCC(C(=O)N3CCCC(c4nc5ncccc5[nH]4)C3)CC2)cc1` (configuration not stated) as the compound, how does the Potency read?
Answer: inactive

Question: With `COc1ncccc1-c1ncc2c(n1)OCCN(Cc1ccc(F)cc1F)C2=O` as the compound, how does the Potency read?
Answer: inconclusive: 35.5 µM [inhibitor, partial curve, poor fit]

Question: With `Cc1cccc(OCC(=O)N2CCCN(c3cc(-c4ccc(Cl)cc4)[nH]n3)CC2)c1` as the compound, how does the Potency read?
Answer: active: 25.1 µM

Question: Which Potency does the source give for `CN1[C@@H](CCC(=O)N2CCN(c3ccccc3)CC2)CNC(=O)[C@@H]2[C@H]1CCN2Cc1ccc(F)cc1` here?
Answer: inconclusive: 63.1 µM [inhibitor, partial curve, poor fit]

Question: Which Potency does the source give for `Cc1cc(=O)n(CC(=O)Nc2ccc3c(c2)OCCO3)c(-c2ccc(Cl)cc2)n1` here?
Answer: inconclusive: 50.1 µM [inhibitor, partial curve, poor fit]

Question: Which Potency does the source give for `O=C1CC2(CCN(CC3CCCCC3)CC2)Oc2ccccc21` here?
Answer: inconclusive: 100 µM [inhibitor, partial curve]

Question: With `COc1cccc(NC(=O)N2CC(C(=O)N(C)C)C3(CCOCC3)C2)c1` (configuration not stated) as the compound, how does the Potency read?
Answer: inactive

Question: Which Potency does the source give for `O=C(Nc1ccccc1)N1C[C@@H]2OCC(=O)N(Cc3ccccn3)[C@@H]2C1` here?
Answer: inconclusive: 112 µM [inhibitor, partial curve, poor fit]

Question: With `COc1ccccc1C(=O)NC[C@@H]1CC[C@H]2C[C@@H]1C2(C)C` as the compound, how does the Potency read?
Answer: inconclusive: 89.1 µM [inhibitor, partial curve]

Question: For `Cc1ccc(NC(=O)N2CCc3c(c4ccccc4n3C)C2)cc1C`, which Potency is on record?
Answer: inconclusive: 70.8 µM [inhibitor, single point]

Question: With `CC(C)c1nc2c(c(-c3ccc(O)cc3)n1)CN(C(=O)c1cccc(Cl)c1)CC2` as the compound, how does the Potency read?
Answer: inconclusive: 44.7 µM [inhibitor, partial curve, poor fit]

Question: With `Cc1cccc(-n2ncc3c2CCCC3NC(=O)CN2CCNC(=O)C2)c1C` (configuration not stated) as the compound, how does the Potency read?
Answer: inactive

Question: Which Potency does the source give for `O=C1NC2(CCCN(C(=O)Cc3ccccc3)C2)Oc2ccccc21` (configuration not stated) here?
Answer: inactive

Question: With `COCCNC(=O)Cc1c[nH]c2ncc(-c3ccccc3)cc12` as the compound, how does the Potency read?
Answer: inconclusive: 89.1 µM [inhibitor, partial curve]

Question: With `CCN(CC)c1ccc(C(=O)N2CCC(n3cc(-c4nc(C)no4)nn3)CC2)cc1` as the compound, how does the Potency read?
Answer: inconclusive: 11.2 µM [inhibitor, full curve, poor fit]

Question: With `Cc1ccc(-c2noc([C@@H]3C[C@H](NS(=O)(=O)c4ccccc4)CN3C)n2)cc1` as the compound, how does the Potency read?
Answer: inconclusive: 70.8 µM [inhibitor, partial curve]

Question: With `CCCCNC(=O)c1cccc2c1CCN2S(=O)(=O)c1cccc(C)c1` as the compound, how does the Potency read?
Answer: inconclusive: 44.7 µM [inhibitor, partial curve, poor fit]

Question: For `O=C(NCc1ccccc1)C1CCCN(Cc2cccc(-c3ccsc3)c2)C1` (configuration not stated), which Potency is on record?
Answer: active: 39.8 µM

Question: With `Cc1nc(C2(C)CCN(C(=O)c3ccc(Cc4c(C)noc4C)o3)CC2)no1` as the compound, how does the Potency read?
Answer: inconclusive: 44.7 µM [inhibitor, partial curve, poor fit]

Question: Which Potency does the source give for `CCOc1ccccc1CN1CCN(c2ccnc(N)n2)CC1CCO` (configuration not stated) here?
Answer: inconclusive: 79.4 µM [inhibitor, single point]

Question: With `Cc1ccsc1C(=O)N1CCCN(c2cc(-c3ccc(Cl)cc3)[nH]n2)CC1` as the compound, how does the Potency read?
Answer: inconclusive: 44.7 µM [inhibitor, partial curve, poor fit]

Question: For `O=C(NCc1nnc2ccc(-c3ccc(F)cc3)nn12)c1cc(Cl)ccc1F`, which Potency is on record?
Answer: inconclusive: 44.7 µM [inhibitor, partial curve, poor fit]

Question: Which Potency does the source give for `COc1ccc(C(=O)NC[C@H]2Cn3c(-c4ccc(Cl)cc4)cnc3CO2)cc1` here?
Answer: inconclusive: 56.2 µM [inhibitor, partial curve, poor fit]

Question: Which Potency does the source give for `CCN(CC)Cc1nc(C2(O)CCN(C(=O)Nc3ccc(F)cc3)CC2)cs1` here?
Answer: inactive

Question: With `O=C(Cc1ccc(F)cc1)N1CCC(Cc2nc(-c3ccc(F)cc3)no2)CC1` as the compound, how does the Potency read?
Answer: inconclusive: 39.8 µM [inhibitor, partial curve]

Question: For `OCC1(Cc2cccc(Cl)c2)CCCN(Cc2nc(-c3ccc(F)cc3)cs2)C1` (configuration not stated), which Potency is on record?
Answer: inconclusive: 63.1 µM [inhibitor, partial curve, poor fit]

Question: For `COc1cc(OC)cc(C(=O)N2CCN(c3cc(-c4cccs4)[nH]n3)CC2)c1`, which Potency is on record?
Answer: inconclusive: 39.8 µM [inhibitor, partial curve]

Question: Which Potency does the source give for `Cc1nn(Cc2ccccc2)c(C)c1[C@@H]1C=C[C@@H](NC(=O)c2ccc3c(c2)OCO3)C1` here?
Answer: inconclusive: 35.5 µM [inhibitor, partial curve, poor fit]

Question: For `CN1c2cc(C(=O)Nc3ccc4c(c3)OCCO4)ccc2C(=O)N2CCCC21` (configuration not stated), which Potency is on record?
Answer: inconclusive: 63.1 µM [inhibitor, partial curve, poor fit]

Question: Which Potency does the source give for `O=C(Cc1c[nH]c2ncc(-c3ccc(Oc4ccccc4)cc3)cc12)N1CCOCC1` here?
Answer: inconclusive: 39.8 µM [inhibitor, partial curve, poor fit]

Question: With `O=C(c1cn(Cc2ccccc2F)nn1)N1CCC(O)(c2cccc(C(F)(F)F)c2)CC1` as the compound, how does the Potency read?
Answer: inconclusive: 56.2 µM [inhibitor, partial curve, poor fit]

Question: With `CS(=O)(=O)N1CC(C(=O)NCCc2ccncc2)C2(CCOCC2)C1` (configuration not stated) as the compound, how does the Potency read?
Answer: inactive

Question: For `COc1ccc(CCc2nc3nccc(-c4cccc(OC)c4)n3n2)cc1`, which Potency is on record?
Answer: inconclusive: 44.7 µM [inhibitor, partial curve, poor fit]

Question: For `O=C(Cc1ccccc1)N1CCCN(c2ccnc3ccnn23)CC1`, which Potency is on record?
Answer: inconclusive: 89.1 µM [inhibitor, partial curve, poor fit]

Question: With `COc1ccccc1Cn1c(=O)c(C(=O)NCc2cccs2)nc2cccnc21` as the compound, how does the Potency read?
Answer: inconclusive: 50.1 µM [inhibitor, partial curve, poor fit]

Question: For `O=C(Nc1ccc(F)cc1)C1CN(c2ccnc3ccnn23)C1`, which Potency is on record?
Answer: inconclusive: 14.1 µM [inhibitor, full curve, poor fit]

Question: Which Potency does the source give for `COCCNc1ncccc1-c1noc([C@@H]2CCCN2Cc2ccncc2)n1` here?
Answer: inactive

Question: Which Potency does the source give for `NC(=O)c1ccc(OC2CCN(C(=O)C3CCC3)CC2)nc1` here?
Answer: inactive

Question: With `O=C(c1ccccc1)N1CCCC2(CC(c3cccc(C(F)(F)F)c3)=NO2)C1` (configuration not stated) as the compound, how does the Potency read?
Answer: inactive

Question: For `Cc1nn(-c2ccccc2)c2c1C(C1CC1)N(C1CCN(C(=O)c3cccc(Cl)c3)C1)C2=O` (configuration not stated), which Potency is on record?
Answer: inconclusive: 12.6 µM [inhibitor, full curve]

Question: For `COc1ccc(-c2cnc3[nH]cc(CC(=O)NC4CCOCC4)c3c2)cc1`, which Potency is on record?
Answer: active: 25.1 µM

Question: With `O=C(c1ccc(C2CCCNC2)cc1)N1CCCN(c2ccc(F)cc2)CC1` (configuration not stated) as the compound, how does the Potency read?
Answer: inconclusive: 89.1 µM [inhibitor, single point]

Question: Which Potency does the source give for `COC(C)(C)C(=O)N1CCc2onc(-c3ccc4c(c3)OCO4)c2C1` here?
Answer: inconclusive: 44.7 µM [inhibitor, partial curve]

Question: Which Potency does the source give for `Cc1cc(C2CC(C(=O)NCCc3ccccc3)CN(C(=O)C3CC3)C2)ccc1F` (configuration not stated) here?
Answer: active: 31.6 µM

Question: With `CC1(c2cccnc2)N(Cc2ccccc2)C(=O)OC12CCN(C(=O)C1CCC1)CC2` (configuration not stated) as the compound, how does the Potency read?
Answer: inconclusive: 8.91 µM [inhibitor, full curve, poor fit]

Question: Which Potency does the source give for `CN(CCc1nc2ccc(Cl)cc2[nH]1)c1cc(C2CC(O)C2)nc(N)n1` (configuration not stated) here?
Answer: inactive

Question: With `NC(=O)[C@@H](Cc1ccccc1)NC(=O)[C@@]1(O)C[C@@H](O)[C@H](O)[C@@H](NS(=O)(=O)c2cccc(C(F)(F)F)c2)C1` as the compound, how does the Potency read?
Answer: inactive

Question: For `CN1C(=O)CC[C@]2(C(=O)NCC3CCCCC3)CCCC[C@@H]12`, which Potency is on record?
Answer: inactive

Question: With `COc1ccc(-c2noc([C@@H]3CCCN3C(=O)CCCc3ccccc3)n2)cc1OC` as the compound, how does the Potency read?
Answer: inconclusive: 50.1 µM [inhibitor, partial curve, poor fit]

Question: With `CCN1c2cc(C(=O)Nc3ccc(Cl)cc3)ccc2C(=O)N2CCCCC21` (configuration not stated) as the compound, how does the Potency read?
Answer: inconclusive: 44.7 µM [inhibitor, partial curve, poor fit]

Question: For `COC(=O)CC1CCN(C(=O)C[C@H]2NC(=O)c3ccccc3NC2=O)CC1`, which Potency is on record?
Answer: inactive

Question: With `CCNC(=O)N1CCC(c2nc(-c3cccn3C)no2)CC1` as the compound, how does the Potency read?
Answer: inactive

Question: Which Potency does the source give for `Cc1ccc(-c2cnc3n[nH]c(-c4ccccc4)c3n2)cc1` here?
Answer: inconclusive: 15.8 µM [inhibitor, full curve, poor fit]

Question: With `CC(C)c1ccc(C(=O)N2C[C@@H]3CCCN4CCC[C@@H]([C@H]34)[C@H]2CCCC(=O)N2CCOCC2)cc1` as the compound, how does the Potency read?
Answer: inactive

Question: With `O=S(=O)(c1ccccc1)N1CCN(c2ccc3nnc(-c4ccccc4)n3n2)CC1` as the compound, how does the Potency read?
Answer: inconclusive: 35.5 µM [inhibitor, partial curve, poor fit]

Question: With `COc1cccc(N2CCN(C(=O)C3CC(=O)N(c4n[nH]c5cccc(F)c45)C3)CC2)c1` (configuration not stated) as the compound, how does the Potency read?
Answer: inconclusive: 70.8 µM [inhibitor, single point]

Question: For `CN(C)C(=O)c1ccnc2[nH]ccc12`, which Potency is on record?
Answer: inconclusive: 112 µM [inhibitor, partial curve, poor fit]

Question: With `Cc1nn2c(c1-c1ccccc1Oc1ccccc1)N(C(=O)Cc1cccc(F)c1)CCC2` as the compound, how does the Potency read?
Answer: active: 39.8 µM

Question: With `CC1(COCC2CC2)COc2ccc(C(=O)NCc3ccc4c(c3)OCO4)cc2N1` (configuration not stated) as the compound, how does the Potency read?
Answer: inconclusive: 89.1 µM [inhibitor, partial curve, poor fit]
